“And” between values parts separate entries of the source, which are not always exact repeats. Equal entries are not always repeated. The whole screen tested about 390,000 compounds, of which about 17,000 (4.4%) were called active. This list was built around the results that the source calls inconclusive (neither active nor inactive); the mix of calls is not that of the screen. The call rests on the fitted dose curve; in most records, active means well fitted inhibition curve with a large enough effect; inconclusive means small, poorly fitted or top-dose-only effect; inactive means no such curve, though single readings can be large or run the other way. Potencies of inconclusive entries are doubtful fits and often do not repeat.
Each compound was assayed against Lysine-specific demethylase 4A (Homo sapiens) (UniProt O75164) (assay: qHTS Assay for Inhibitors of JMJD2A-Tudor Domain). Conditions: AlphaScreen JMJD2A-Tudor / H3K4me3 peptide binding; activity change, negative = inhibition: at 114 µM (top of the series).
Further: nearly all actives have a fitted effect of over 50% in size.
On the % scale 0 is the no-effect control and ±100 the full control effect; potency means the concentration at half of the fitted maximal effect; tags describe the fitted curve by direction and shape.

UniProt O75164, sequence (O75164 whole entry, looked up, the tested form may be a part): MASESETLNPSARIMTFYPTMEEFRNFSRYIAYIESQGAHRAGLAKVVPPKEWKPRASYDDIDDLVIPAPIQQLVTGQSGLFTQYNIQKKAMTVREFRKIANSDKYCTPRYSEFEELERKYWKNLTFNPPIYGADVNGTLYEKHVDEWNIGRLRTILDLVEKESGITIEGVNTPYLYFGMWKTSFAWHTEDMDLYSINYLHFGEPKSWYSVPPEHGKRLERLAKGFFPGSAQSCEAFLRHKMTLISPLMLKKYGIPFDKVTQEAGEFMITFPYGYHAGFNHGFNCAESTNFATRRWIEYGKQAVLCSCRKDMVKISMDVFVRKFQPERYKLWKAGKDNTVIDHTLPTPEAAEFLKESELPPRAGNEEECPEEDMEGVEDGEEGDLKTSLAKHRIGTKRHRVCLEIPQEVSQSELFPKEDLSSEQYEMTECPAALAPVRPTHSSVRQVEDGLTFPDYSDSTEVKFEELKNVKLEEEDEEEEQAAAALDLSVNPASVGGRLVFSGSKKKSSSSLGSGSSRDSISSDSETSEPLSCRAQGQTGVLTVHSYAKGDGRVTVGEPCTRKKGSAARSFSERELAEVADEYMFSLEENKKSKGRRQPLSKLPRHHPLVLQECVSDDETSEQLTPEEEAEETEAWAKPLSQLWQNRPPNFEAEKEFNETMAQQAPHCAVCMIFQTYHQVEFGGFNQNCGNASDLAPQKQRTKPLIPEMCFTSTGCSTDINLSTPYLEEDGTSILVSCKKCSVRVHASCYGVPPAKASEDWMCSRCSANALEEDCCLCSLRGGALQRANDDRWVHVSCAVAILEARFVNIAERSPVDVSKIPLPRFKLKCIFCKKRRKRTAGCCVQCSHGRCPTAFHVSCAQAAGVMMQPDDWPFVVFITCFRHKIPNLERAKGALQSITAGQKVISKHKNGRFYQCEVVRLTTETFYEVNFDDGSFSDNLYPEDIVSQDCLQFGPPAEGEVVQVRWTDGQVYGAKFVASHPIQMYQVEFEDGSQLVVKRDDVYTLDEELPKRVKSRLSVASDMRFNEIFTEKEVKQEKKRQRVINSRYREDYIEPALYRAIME

SMILES | Potency | activity change, negative = inhibition
COc1ccc(-n2cc(-c3ccccc3)c3c(NCCCN4CCOCC4)ncnc32)cc1 | inconclusive: 28.2 µM [inhibitor, partial curve] | 
COc1c(C)cccc1C(=O)NC(=S)Nc1ccc2c(c1)Cc1ccccc1-2 |  | inactive: 0.694%
CN(Cc1ccccc1)c1nc2c(c(=O)[nH]c(=O)n2C)n1CCCc1ccccc1 | inconclusive: 39.8 µM [inhibitor, partial curve] | 
O=C1NS(=O)(=O)c2ccccc21 | inconclusive: 89.1 µM [inhibitor, single point] | 
Cc1cc(=O)oc(C)c1C(=O)NCCN(C)Cc1ccccc1 | inconclusive: 31.6 µM [inhibitor, partial curve] | 
COc1ccc(-c2cc(C(=O)Nc3ccc(C)c(N)c3)c3ccccc3n2)cc1 | inconclusive: 20 µM [inhibitor, full curve] | 
COc1ccc(/C=N/NC(=O)c2cc(-c3ccccc3OC(C)C)nc3ccccc23)cc1CN1CCOCC1 | inconclusive: 25.1 µM [inhibitor, full curve, poor fit] | 
CCC[C@@H](CN1CCC[C@H]1CN1C(N)=NC[C@H]1CC(C)C)N1C[C@@H]([C@H](C)CC)N(CCc2ccc(Cl)c(Cl)c2)C1=N | inconclusive: 56.2 µM [inhibitor, partial curve] | 
CCC(Oc1ccccc1)C(=O)Nc1ccccc1C(=O)N1CCOCC1 (centres undefined) |  | inactive: -15.3%
CC(C)(C)NC(=O)NC(=O)CN1CCN(S(=O)(=O)c2ccc3c(c2)CCCC3)CC1 |  | inactive: -20%
O=C(NCC1CCCO1)c1cccc(S(=O)(=O)NCc2ccccc2)c1 (centres undefined) |  | inactive: -17.9%
O=C(COc1ccc(Cl)cc1Cl)NCCSc1ccc(Cl)cc1 | inconclusive: 3.16 µM [inhibitor, single point] | 
CCOc1ccc(CN(C)CC(=O)Nc2cccc(S(=O)(=O)N(C)c3ccccc3)c2)cc1 | active: 22.4 µM | 
O=C(Nc1ccc(F)cc1F)c1cc(CN2CCOCC2)on1 |  | inactive: -11.3%
COc1cc([C@H]2OC[C@H]3[C@@H]2CO[C@H]3c2ccc(O)c(OC)c2)ccc1O |  | inactive: -17.1%
O=C(c1ccc2c(c1)N(Cc1cccc(Cl)c1)C(=O)c1ccccc1S2(=O)=O)N1CCN(Cc2ccccc2)CC1 |  | inactive: -22.4%
Clc1cc(Br)ccc1OCCCNCc1ccccc1 | active: 2.82 µM | 
O=C(COC(=O)/C=C/c1ccccc1)NC1CCCCCC1 |  | inactive: -8.9%
O=C(CSc1nc2ccccc2s1)NNC(=S)Nc1ccccc1 |  | inactive: -13.6%
Nc1ccc2c(c1)C(=O)c1ccc(Br)cc1-2 | inconclusive: 5.62 µM [inhibitor, full curve] | 
Cn1cccc1/C=N/N1CCN(Cc2ccccc2)CC1 | inconclusive: 56.2 µM [inhibitor, partial curve] | 
CCc1cc(C(c2ccccn2)N2CCN(C)CC2)c(NC(=O)c2ccccc2)s1 (centres undefined) | inconclusive: 25.1 µM [inhibitor, single point] | 
CC(NC(=O)c1cc(=O)[nH]c2ccccc12)c1ccccc1 (centres undefined) |  | inactive: -8.14%

SMILES | Potency | activity change, negative = inhibition
CC(=O)C(Sc1ccc2nnc(-c3ccc(F)cc3)n2n1)C(C)=O | inconclusive: 39.8 µM [inhibitor, single point] | 
COC(=O)c1sc(N2C(=O)C(=O)/C(=C(/O)c3ccc(C)cc3)C2c2ccco2)nc1C (centres undefined) | active: 63.1 µM | 
CC1=C/C(=C(\c2cc(C)c(O)c(Br)c2)c2ccccc2S(=O)(=O)O)C=C(Br)C1=O | inconclusive: 50.1 µM [inhibitor, partial curve] | 
Oc1cccc(-c2nc(-c3cccs3)c(-c3cccs3)[nH]2)c1 | inconclusive: 50.1 µM [inhibitor, partial curve] | 
Cc1ccccc1OCCSc1nnc(-c2ccc([N+](=O)[O-])cc2)o1 | inconclusive: 44.7 µM [inhibitor, partial curve] | 
Cc1ccc(S(=O)(=O)NC(CC(=O)NCC2CCCO2)c2ccco2)cc1 (centres undefined) | active: 4.47 µM | 
C[C@@H]1CN([C@H](C)CO)C(=O)c2cc(NC(=O)Nc3ccc4c(c3)OCO4)ccc2O[C@H]1CN(C)Cc1ccncc1 | inconclusive: 50.1 µM [inhibitor, partial curve] | 
CCC(C)NC(=O)Cn1c(=O)n(-c2ccc(C)c(C)c2)c(=O)c2c(C)c(C(=O)N(CC)CC)sc21 (centres undefined) | inconclusive: 89.1 µM [inhibitor, single point] | 
OCCN(CCO)CC(O)COCCC12CC3CC(CC(C3)C1)C2 (centres undefined) | inconclusive: 89.1 µM [inhibitor, single point] | 
O=C(Cc1ccccc1)Nc1nnc2n1CCS2 | active: 50.1 µM | 
Cc1cc(C(C)(C)C)cc(C)c1CCNC(=O)c1c(C)noc1C |  | inactive: -0.69%
Cc1[nH]n(-c2ccccc2)c(=O)c1N=Nc1ccc(C(N)=O)cc1 |  | inactive: -11.9%
CCOCC(=O)Nc1nnc(C)s1 |  | inactive: -2.27%
CC1(C)CC(=O)C(C(c2ccco2)C2C(=O)CC(C)(C)CC2=O)C(=O)C1 | inconclusive: 17.8 µM [inhibitor, full curve] | 
CC(=O)N(C)c1ccc(N=Nc2c(C)[nH]n(-c3ccccc3)c2=O)cc1 | inconclusive: 50.1 µM [inhibitor, partial curve] | 
COc1ccc(N(CC(=O)Nc2cc(OC)ccc2OC)S(=O)(=O)c2c(C)nn(C)c2C)cc1 | inconclusive: 50.1 µM [inhibitor, partial curve] | 
CC1CCCC/C1=N\NC(=S)Nc1ccccc1 (centres undefined) | inconclusive: 89.1 µM [inhibitor, partial curve] | 
NS(=O)(=O)c1ccc(NCc2ccccc2OCc2ccccc2F)cc1 | inconclusive: 50.1 µM [inhibitor, partial curve] | 
CC(C)=CCC/C(C)=C/CNC(=O)C[C@H]1C[C@H](C(=O)N2CCOCC2)[C@@]2(CCC3CCCC3)c3[nH]c4cc(CCC(=O)N(C)C)ccc4c3CCN2C1=O | inconclusive: 39.8 µM [inhibitor, full curve, poor fit] | 
O=c1nc(N2CCOCC2)nc(N/N=C/c2ccc3c(c2)OCO3)[nH]1 | inconclusive: 31.6 µM [inhibitor, partial curve] | 
CCn1c(C(=O)N2CCCC(C(=O)N3CCN(c4ccccc4)CC3)C2)cc2sccc21 (centres undefined) | inconclusive: 44.7 µM [inhibitor, partial curve] | 
COC(=O)CCc1ccccc1S(=O)(=O)N(CCC(=O)OC)Cc1ccccc1 | inconclusive: 79.4 µM [inhibitor, partial curve] | 
Cc1ccccc1/C=N/N1CCN(c2ccccc2)CC1 | inconclusive: 22.4 µM [inhibitor, full curve] | 

SMILES | Potency | activity change, negative = inhibition
Cc1cccc(N2C(=O)CC(SC(N)=Nc3ccccc3)C2=O)c1 (centres undefined) | inconclusive: 25.1 µM [inhibitor, full curve] | 
O=[N+]([O-])c1ccc(Cl)c(CN2CCN(c3ncccn3)CC2)c1 | inconclusive: 28.2 µM [inhibitor, partial curve] | 
CC(C)CC1CCCCC1OC(=O)C[N+]1(C)CCCCC1 (centres undefined) | inconclusive: 31.6 µM [inhibitor, partial curve] | 
CCOc1ccc(-c2cccc(NS(=O)(=O)c3ccccc3C(F)(F)F)c2)nn1 |  | inactive: -19.2%
Cc1nc(SCc2ccc(O)c([N+](=O)[O-])c2)c([N+](=O)[O-])[nH]1 | active: 22.4 µM | 
Cc1ccc(Cc2cnc(N)s2)o1 | inconclusive: 44.7 µM [inhibitor, full curve, poor fit] | 
Cc1ccc(-n2c(C)nn(-c3ncc(C(F)(F)F)cc3Cl)c2=O)cc1 |  | inactive: -1.45%
CCOc1ccccc1C(=O)Nc1ccc2nc3c(c(Nc4ccc(OC)c(OC)c4)c2c1)CCCC3 | inconclusive: 10 µM [inhibitor, full curve] | 
Cc1ccc(-c2nnc3ccc(SC(C)C(=O)O)nn23)cc1 (centres undefined) | active: 39.8 µM | 
Cc1cc(Nc2cccc(Cl)c2)nc2ccc(NC(=O)c3cccc(N(C)C)c3)cc12 | inconclusive: 31.6 µM [inhibitor, partial curve] | 
CCOC(=O)C1C(=O)C=C(c2cccc(NS(C)(=O)=O)c2)CC1c1ccco1 (centres undefined) | inconclusive: 56.2 µM [inhibitor, partial curve] | 
COc1cc(C(=O)NC(=S)Nc2ccc(Cc3ccncc3)cc2)cc(OC)c1OC | inconclusive: 31.6 µM [inhibitor, full curve] | 
Cc1ccc(S(=O)(=O)Nc2cccc3cccnc23)c([N+](=O)[O-])c1 | inconclusive: 20 µM [inhibitor, full curve] and inconclusive: 44.7 µM [inhibitor, partial curve] | 
O=C(CCc1nnc(-c2ccsc2)o1)N1CCc2c(Cl)cccc2C1 | inconclusive: 20 µM [inhibitor, single point] | 
CCOCCCn1c(-c2ccc(Cl)cc2)n[nH]c1=S | active: 3.98 µM | 
Cc1cc2[nH]c(=O)c(=O)[nH]c2cc1S(=O)(=O)Nc1ccc(OC(F)(F)F)cc1 |  | inactive: -9.9%
Cc1cc(C(c2cc(C)c(N)c(C)c2)c2ccco2)cc(C)c1N | active: 79.4 µM | 
Cc1[nH]c2ccccc2c1C(=O)C(=O)Nc1ccc2c(c1)OCO2 |  | inactive: -30.3%
CC/C(=C/c1sc2ccccc2[n+]1CC)SC | active: 25.1 µM | 
CN1CCN(c2ccc(S(=O)(=O)N3CCCCC3)cc2NC(=O)/C=C/c2ccc(Cl)c([N+](=O)[O-])c2)CC1 | active: 44.7 µM | 
COc1ccc(N2CCN(c3nccs3)CC2)cc1 | inconclusive: 56.2 µM [inhibitor, partial curve, poor fit] | 
COCCn1nnnc1CN1CCC(O)(c2cccc(C(F)(F)F)c2)CC1 |  | inactive: -16.3%
CC(C)(C)c1cc(-c2csc(Nc3ccccc3)[n+]2Cc2ccc(C(=O)O)cc2)cc(C(C)(C)C)c1O | active: 39.8 µM | 

Source: PubChem BioAssay AID504339 (National Center for Advancing Translational Sciences (NCATS), 2011)
